Paper PMC12820563, “FoxP3 forms a head-to-head dimer in vivo and stabilizes its multimerization on adjacent microsatellites”
The list shows a part of the results.

Biological target: T1, MBP-FoxP1dN (Mus musculus, UniProt P58462 326-579)
T1 sequence: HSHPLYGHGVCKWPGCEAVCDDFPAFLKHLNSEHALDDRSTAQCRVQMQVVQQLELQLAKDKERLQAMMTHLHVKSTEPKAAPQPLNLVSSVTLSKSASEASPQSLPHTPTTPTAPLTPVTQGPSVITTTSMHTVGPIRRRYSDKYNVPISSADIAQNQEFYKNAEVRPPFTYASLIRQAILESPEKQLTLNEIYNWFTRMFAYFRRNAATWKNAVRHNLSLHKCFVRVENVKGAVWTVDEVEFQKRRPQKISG
Test: PD-seq (MBP pull-down with sequencing); 20 mM Tris-HCl pH 7.5, 100 mM NaCl, 1.5 mM MgCl2, 0.4 uM protein, 0.1 uM dsDNA library, 30 min, room temperature, amylose pull-down; high values mean tight binding
Settings: protein: recombinant; tags: His6-MBP; chain copies: 2; dsDNA, one strand shown
How it was run: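 His6-MBP-tagged mouse FoxP3 or FoxP1 fragment lacking the N-terminus, expressed in E. coli, was mixed at 0.4 µM with 0.1 µM Klenow-filled double-stranded degenerate DNA library. Incubation was 30 min at room temperature in Tris pH 7.5 buffer with NaCl and MgCl2. Complexes were caught on amylose resin and washed three times; DNA was released with proteinase K, PCR-barcoded and Illumina-sequenced. Binding is reads-per-million enrichment, pull-down over input, with replicates pooled.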

Sequence	binding signal
GATGATTGTTCTCCCAGCTGATGAATTCCAAGAGTCGAGTAAACAAATTTTCCTAATCTTTCTGTTCAAGCGCCATCTAC	0.727 RPM ratio (pull-down/input)
GATGATTGTTCTCCCAGCTGATGAATTCTCCACATCGAGTAAACAAATTTTCCTAATCTTTCTGTTCAAGCGCCATCTAC	0.931 RPM ratio (pull-down/input)
GATGATTGTTCTCCCAGCTGATGAATTTGTAGGCTCGAGTAAACAAATTTTCCTAATCTTTCTGTTCAAGCGCCATCTAC	0.934 RPM ratio (pull-down/input)
GATGATTGTTCTCCCAGCTGATGAATTTAGGGGCTCGAGTAAACAAATTTTCCTAATCTTTCTGTTCAAGCGCCATCTAC	0.857 RPM ratio (pull-down/input)
GATGATTGTTCTCCCAGCTGATGAATTGGCAGCTTCGAGTAAACAAATTTTCCTAATCTTTCTGTTCAAGCGCCATCTAC	0.8 RPM ratio (pull-down/input)
GATGATTGTTCTCCCAGCTGATGAATTCTTGAGCTCGAGTAAACAAATTTTCCTAATCTTTCTGTTCAAGCGCCATCTAC	0.777 RPM ratio (pull-down/input)
GATGATTGTTCTCCCAGCTGATGAATTACCCCGGTCGAGTAAACAAATTTTCCTAATCTTTCTGTTCAAGCGCCATCTAC	0.873 RPM ratio (pull-down/input)
GATGATTGTTCTCCCAGCTGATGAATTTGATCAGTCGAGTAAACAAATTTTCCTAATCTTTCTGTTCAAGCGCCATCTAC	0.898 RPM ratio (pull-down/input)
GATGATTGTTCTCCCAGCTGATGAATTACTTATATCGAGTAAACAAATTTTCCTAATCTTTCTGTTCAAGCGCCATCTAC	1.22 RPM ratio (pull-down/input)
GATGATTGTTCTCCCAGCTGATGAATTATGGGTTTCGAGTAAACAAATTTTCCTAATCTTTCTGTTCAAGCGCCATCTAC	0.913 RPM ratio (pull-down/input)
GATGATTGTTCTCCCAGCTGATGAATTCGCTTAATCGAGTAAACAAATTTTCCTAATCTTTCTGTTCAAGCGCCATCTAC	0.936 RPM ratio (pull-down/input)
GATGATTGTTCTCCCAGCTGATGAATTTGGGGGATCGAGTAAACAAATTTTCCTAATCTTTCTGTTCAAGCGCCATCTAC	0.828 RPM ratio (pull-down/input)
GATGATTGTTCTCCCAGCTGATGAATTGGAACCGTCGAGTAAACAAATTTTCCTAATCTTTCTGTTCAAGCGCCATCTAC	0.795 RPM ratio (pull-down/input)
GATGATTGTTCTCCCAGCTGATGAATTACGTTAGTCGAGTAAACAAATTTTCCTAATCTTTCTGTTCAAGCGCCATCTAC	1.05 RPM ratio (pull-down/input)
GATGATTGTTCTCCCAGCTGATGAATTTTGGTTTTCGAGTAAACAAATTTTCCTAATCTTTCTGTTCAAGCGCCATCTAC	1.21 RPM ratio (pull-down/input)
GATGATTGTTCTCCCAGCTGATGAATTGATGTCGTCGAGTAAACAAATTTTCCTAATCTTTCTGTTCAAGCGCCATCTAC	1.14 RPM ratio (pull-down/input)
GATGATTGTTCTCCCAGCTGATGAATTGCAGGTTTCGAGTAAACAAATTTTCCTAATCTTTCTGTTCAAGCGCCATCTAC	1.08 RPM ratio (pull-down/input)
GATGATTGTTCTCCCAGCTGATGAATTAACTCTCTCGAGTAAACAAATTTTCCTAATCTTTCTGTTCAAGCGCCATCTAC	0.763 RPM ratio (pull-down/input)
GATGATTGTTCTCCCAGCTGATGAATTTTGCTGTTCGAGTAAACAAATTTTCCTAATCTTTCTGTTCAAGCGCCATCTAC	1.64 RPM ratio (pull-down/input)
GATGATTGTTCTCCCAGCTGATGAATTAGCGAAATCGAGTAAACAAATTTTCCTAATCTTTCTGTTCAAGCGCCATCTAC	0.999 RPM ratio (pull-down/input)
GATGATTGTTCTCCCAGCTGATGAATTGCATGGTTCGAGTAAACAAATTTTCCTAATCTTTCTGTTCAAGCGCCATCTAC	1.06 RPM ratio (pull-down/input)

Sequence	binding signal
GATGATTGTTCTCCCAGCTGATGAATTCCGGCCCTCGAGTAAACAAATTTTCCTAATCTTTCTGTTCAAGCGCCATCTAC	0.716 RPM ratio (pull-down/input)
GATGATTGTTCTCCCAGCTGATGAATTATTCTTATCGAGTAAACAAATTTTCCTAATCTTTCTGTTCAAGCGCCATCTAC	1.08 RPM ratio (pull-down/input)
GATGATTGTTCTCCCAGCTGATGAATTCGCACTATCGAGTAAACAAATTTTCCTAATCTTTCTGTTCAAGCGCCATCTAC	0.93 RPM ratio (pull-down/input)
GATGATTGTTCTCCCAGCTGATGAATTATGCATTTCGAGTAAACAAATTTTCCTAATCTTTCTGTTCAAGCGCCATCTAC	1.52 RPM ratio (pull-down/input)
GATGATTGTTCTCCCAGCTGATGAATTCAACGAATCGAGTAAACAAATTTTCCTAATCTTTCTGTTCAAGCGCCATCTAC	0.934 RPM ratio (pull-down/input)
GATGATTGTTCTCCCAGCTGATGAATTCAAACTTTCGAGTAAACAAATTTTCCTAATCTTTCTGTTCAAGCGCCATCTAC	1.03 RPM ratio (pull-down/input)
GATGATTGTTCTCCCAGCTGATGAATTGGTATCATCGAGTAAACAAATTTTCCTAATCTTTCTGTTCAAGCGCCATCTAC	1.18 RPM ratio (pull-down/input)
GATGATTGTTCTCCCAGCTGATGAATTATACCTCTCGAGTAAACAAATTTTCCTAATCTTTCTGTTCAAGCGCCATCTAC	0.896 RPM ratio (pull-down/input)
GATGATTGTTCTCCCAGCTGATGAATTTGCTCACTCGAGTAAACAAATTTTCCTAATCTTTCTGTTCAAGCGCCATCTAC	0.971 RPM ratio (pull-down/input)
GATGATTGTTCTCCCAGCTGATGAATTGGAGGAGTCGAGTAAACAAATTTTCCTAATCTTTCTGTTCAAGCGCCATCTAC	0.76 RPM ratio (pull-down/input)
GATGATTGTTCTCCCAGCTGATGAATTATTTGCGTCGAGTAAACAAATTTTCCTAATCTTTCTGTTCAAGCGCCATCTAC	1.66 RPM ratio (pull-down/input)
GATGATTGTTCTCCCAGCTGATGAATTCGAAGCCTCGAGTAAACAAATTTTCCTAATCTTTCTGTTCAAGCGCCATCTAC	0.807 RPM ratio (pull-down/input)
GATGATTGTTCTCCCAGCTGATGAATTTAATTGTTCGAGTAAACAAATTTTCCTAATCTTTCTGTTCAAGCGCCATCTAC	1.34 RPM ratio (pull-down/input)
GATGATTGTTCTCCCAGCTGATGAATTGAAATTATCGAGTAAACAAATTTTCCTAATCTTTCTGTTCAAGCGCCATCTAC	1.01 RPM ratio (pull-down/input)
GATGATTGTTCTCCCAGCTGATGAATTCTTACCCTCGAGTAAACAAATTTTCCTAATCTTTCTGTTCAAGCGCCATCTAC	0.832 RPM ratio (pull-down/input)
GATGATTGTTCTCCCAGCTGATGAATTTAGTCTATCGAGTAAACAAATTTTCCTAATCTTTCTGTTCAAGCGCCATCTAC	1.08 RPM ratio (pull-down/input)
GATGATTGTTCTCCCAGCTGATGAATTCTTCTTGTCGAGTAAACAAATTTTCCTAATCTTTCTGTTCAAGCGCCATCTAC	0.961 RPM ratio (pull-down/input)
GATGATTGTTCTCCCAGCTGATGAATTGTGGAACTCGAGTAAACAAATTTTCCTAATCTTTCTGTTCAAGCGCCATCTAC	0.871 RPM ratio (pull-down/input)
GATGATTGTTCTCCCAGCTGATGAATTGCGACATTCGAGTAAACAAATTTTCCTAATCTTTCTGTTCAAGCGCCATCTAC	1.17 RPM ratio (pull-down/input)
GATGATTGTTCTCCCAGCTGATGAATTACGGGATTCGAGTAAACAAATTTTCCTAATCTTTCTGTTCAAGCGCCATCTAC	0.949 RPM ratio (pull-down/input)
GATGATTGTTCTCCCAGCTGATGAATTCGCATATTCGAGTAAACAAATTTTCCTAATCTTTCTGTTCAAGCGCCATCTAC	0.873 RPM ratio (pull-down/input)

Sequence	binding signal
GATGATTGTTCTCCCAGCTGATGAATTGGAAGAGTCGAGTAAACAAATTTTCCTAATCTTTCTGTTCAAGCGCCATCTAC	0.869 RPM ratio (pull-down/input)
GATGATTGTTCTCCCAGCTGATGAATTCTTGAGGTCGAGTAAACAAATTTTCCTAATCTTTCTGTTCAAGCGCCATCTAC	0.819 RPM ratio (pull-down/input)
GATGATTGTTCTCCCAGCTGATGAATTAGAAACTTCGAGTAAACAAATTTTCCTAATCTTTCTGTTCAAGCGCCATCTAC	0.892 RPM ratio (pull-down/input)
GATGATTGTTCTCCCAGCTGATGAATTGGCGCGCTCGAGTAAACAAATTTTCCTAATCTTTCTGTTCAAGCGCCATCTAC	0.839 RPM ratio (pull-down/input)
GATGATTGTTCTCCCAGCTGATGAATTTACGAAGTCGAGTAAACAAATTTTCCTAATCTTTCTGTTCAAGCGCCATCTAC	1.1 RPM ratio (pull-down/input)
GATGATTGTTCTCCCAGCTGATGAATTCTATAGCTCGAGTAAACAAATTTTCCTAATCTTTCTGTTCAAGCGCCATCTAC	0.862 RPM ratio (pull-down/input)
GATGATTGTTCTCCCAGCTGATGAATTACGGATCTCGAGTAAACAAATTTTCCTAATCTTTCTGTTCAAGCGCCATCTAC	0.912 RPM ratio (pull-down/input)
GATGATTGTTCTCCCAGCTGATGAATTCGCTCAGTCGAGTAAACAAATTTTCCTAATCTTTCTGTTCAAGCGCCATCTAC	0.788 RPM ratio (pull-down/input)
GATGATTGTTCTCCCAGCTGATGAATTCAATGGATCGAGTAAACAAATTTTCCTAATCTTTCTGTTCAAGCGCCATCTAC	0.883 RPM ratio (pull-down/input)
GATGATTGTTCTCCCAGCTGATGAATTCCAACGCTCGAGTAAACAAATTTTCCTAATCTTTCTGTTCAAGCGCCATCTAC	0.799 RPM ratio (pull-down/input)
GATGATTGTTCTCCCAGCTGATGAATTCCCTCTCTCGAGTAAACAAATTTTCCTAATCTTTCTGTTCAAGCGCCATCTAC	0.765 RPM ratio (pull-down/input)
GATGATTGTTCTCCCAGCTGATGAATTGACGGCGTCGAGTAAACAAATTTTCCTAATCTTTCTGTTCAAGCGCCATCTAC	0.994 RPM ratio (pull-down/input)
GATGATTGTTCTCCCAGCTGATGAATTATCACACTCGAGTAAACAAATTTTCCTAATCTTTCTGTTCAAGCGCCATCTAC	1.1 RPM ratio (pull-down/input)
GATGATTGTTCTCCCAGCTGATGAATTAATGCCGTCGAGTAAACAAATTTTCCTAATCTTTCTGTTCAAGCGCCATCTAC	1.11 RPM ratio (pull-down/input)
GATGATTGTTCTCCCAGCTGATGAATTGCTACACTCGAGTAAACAAATTTTCCTAATCTTTCTGTTCAAGCGCCATCTAC	1.17 RPM ratio (pull-down/input)
GATGATTGTTCTCCCAGCTGATGAATTGTGGCGTTCGAGTAAACAAATTTTCCTAATCTTTCTGTTCAAGCGCCATCTAC	1.18 RPM ratio (pull-down/input)
GATGATTGTTCTCCCAGCTGATGAATTGGACGCGTCGAGTAAACAAATTTTCCTAATCTTTCTGTTCAAGCGCCATCTAC	0.926 RPM ratio (pull-down/input)
GATGATTGTTCTCCCAGCTGATGAATTCCCGAAGTCGAGTAAACAAATTTTCCTAATCTTTCTGTTCAAGCGCCATCTAC	0.724 RPM ratio (pull-down/input)
GATGATTGTTCTCCCAGCTGATGAATTGACCATCTCGAGTAAACAAATTTTCCTAATCTTTCTGTTCAAGCGCCATCTAC	0.882 RPM ratio (pull-down/input)
GATGATTGTTCTCCCAGCTGATGAATTACCGAGCTCGAGTAAACAAATTTTCCTAATCTTTCTGTTCAAGCGCCATCTAC	0.919 RPM ratio (pull-down/input)
GATGATTGTTCTCCCAGCTGATGAATTGTAACGTTCGAGTAAACAAATTTTCCTAATCTTTCTGTTCAAGCGCCATCTAC	0.999 RPM ratio (pull-down/input)
